# Data reported in PubChem BioAssay AID1845203 (Molecular Pharmacology Branch, DTP, NCI, 2023).
# For part of its entries the source gives two or more results. This is not the full list of results. There may be further records. Values given together repeat one measurement across runs, samples, wells, individuals or studies. Counts like (3×) say how often a value occurs here.
# Test system: G-401 tumor spheroids, viability % test/control
# Experiment: Anticancer human tumor G-401 cell line growth inhibition;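 note: spheroids exposed to compound for 7 days; 100% = DMSO vehicle-treated spheroids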
# Details: compound 94.9 pM; stronger effect = lower value; spheroids with HUVEC and MSC
# Text: Multicellular complex tumor spheroid response to DNA repair inhibitors in combination with DNA-damaging drugs
# This study explores the anticancer activities of DNA-damaging drugs and inhibitors of DNA damage repair, both as single agents and in combinations. Complex tumor spheroids comprised of malignant cells, endothelial cells and mesenchymal stem cells served as an in vitro model for human solid tumors. This model system incorporates physiologically relevant features and patient-derived or established malignant cell lines with clinically relevant genetic alterations from many tumor types. Twenty-six patient-derived or established malignant cell lines were evaluated representing sarcoma, melanoma, small cell lung cancer (SCLC), non-small cell lung cancer (NSCLC), as well as bladder, ovarian and pancreatic cancers. The concentration ranges selected for each drug and investigational agent were based upon clinically achievable concentrations if the clinical Cmax of the agent was known.
# Compounds. […] If the clinical Cmax for an agent had not been determined, the highest concentration tested was 10 microM. […]
smiles,measurement,value
COc1cc2c(cc1O)CCNC21CSC2c3c(OC(C)=O)c(C)c4c(c3C(COC1=O)N1C(O)C3Cc5cc(C)c(OC)c(O)c5C(C21)N3C)OCO4 (stereo unspecified),"viability, T/C","98.1, 95.7 (2×), 93, 94.8, 91.4, 80.8, 64.2, 88.6, 87.7%"
